These results are taken from article PMC4336329 (PLoS ONE, 2015).

SMILES strings stand for the structures. Among all 310,000 compounds or so, about 14,000 (4.5%) showed an effect of 50% or more. The effect is printed as a negative number. The list shows a part of the results.
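Also: peak tail current of the secondary pulse compared with the same well before compound.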

Chain of human ether-à-go-go-related gene (hERG) potassium channel (Q12809 whole entry, looked up): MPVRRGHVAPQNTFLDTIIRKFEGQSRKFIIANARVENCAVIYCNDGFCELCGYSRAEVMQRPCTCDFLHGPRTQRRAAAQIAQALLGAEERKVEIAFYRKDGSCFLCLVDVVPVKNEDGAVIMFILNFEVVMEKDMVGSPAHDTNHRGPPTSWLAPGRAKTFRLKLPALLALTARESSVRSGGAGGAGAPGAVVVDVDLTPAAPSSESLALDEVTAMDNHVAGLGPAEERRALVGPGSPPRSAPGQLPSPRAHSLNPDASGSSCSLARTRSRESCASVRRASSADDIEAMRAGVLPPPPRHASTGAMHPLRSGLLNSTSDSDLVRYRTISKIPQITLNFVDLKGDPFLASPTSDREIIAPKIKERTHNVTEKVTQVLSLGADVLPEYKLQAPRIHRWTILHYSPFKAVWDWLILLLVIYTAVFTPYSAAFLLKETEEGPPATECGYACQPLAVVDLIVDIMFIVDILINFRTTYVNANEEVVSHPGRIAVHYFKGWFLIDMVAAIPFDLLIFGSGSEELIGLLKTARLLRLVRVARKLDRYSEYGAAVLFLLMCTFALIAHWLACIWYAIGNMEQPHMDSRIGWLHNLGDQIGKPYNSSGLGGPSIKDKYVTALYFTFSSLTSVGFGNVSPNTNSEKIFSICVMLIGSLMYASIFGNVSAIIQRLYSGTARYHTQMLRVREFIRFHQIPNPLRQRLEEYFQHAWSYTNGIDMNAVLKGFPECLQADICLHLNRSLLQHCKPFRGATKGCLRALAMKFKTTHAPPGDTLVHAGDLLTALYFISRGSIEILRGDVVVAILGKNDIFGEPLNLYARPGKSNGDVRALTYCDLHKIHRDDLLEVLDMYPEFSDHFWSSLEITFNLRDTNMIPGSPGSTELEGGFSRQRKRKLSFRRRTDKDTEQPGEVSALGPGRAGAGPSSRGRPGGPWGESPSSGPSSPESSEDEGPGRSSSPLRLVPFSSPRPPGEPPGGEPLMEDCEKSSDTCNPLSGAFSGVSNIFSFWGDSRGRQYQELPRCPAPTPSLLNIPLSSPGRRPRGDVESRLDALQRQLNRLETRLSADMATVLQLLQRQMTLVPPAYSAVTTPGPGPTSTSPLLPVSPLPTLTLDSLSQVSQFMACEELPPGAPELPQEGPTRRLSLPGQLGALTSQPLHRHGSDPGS

The test concerns the target human ether-à-go-go-related gene (hERG) potassium channel (human, UniProt Q12809). Kind of test: primary screen, population patch clamp on CHO cells stably expressing hERG.
In the case of `COc1ccc(NC(=O)Nc2ccccn2)cc1OC`, the “hERG current change (%, negative = inhibition) at 10uM” value came out at 25.6%.
As to `CCn1cc(CN2CCN(CCc3ccccc3)C(CCO)C2)c(C)n1` (stereo not shown), the “hERG current change (%, negative = inhibition) at 10uM” value is reported as -31%.
With `Cc1cc(=O)[nH]c(NCCO)n1` the figure was 20.2%; with `CCCc1ccc(OCCNC(=O)c2ccco2)cc1`, -23.9%; with `Cc1ccc(Cl)cc1N1CCN(CC(O)COCc2ccco2)CC1.O=C(O)C(=O)O` (stereo not shown), -73.1%.
`Cc1ccc(/C=C2\Oc3c(ccc(O)c3CN3CCN(C)CC3)C2=O)cc1`: the “hERG current change (%, negative = inhibition) at 10uM” value is on record as -15%.
For `O=C(OCCCN=C1NS(=O)(=O)c2ccccc21)c1ccc(F)cc1`, the “hERG current change (%, negative = inhibition) at 10uM” value is reported as -19.2%.
As for `Cc1nc2ccccc2c(=O)n1-c1ccc(NS(=O)(=O)c2ccc(F)cc2F)cc1`, the “hERG current change (%, negative = inhibition) at 10uM” value is -33.2%.
With `CC(C)(C)OC(=O)CNC(=O)c1nc[nH]c1C(=O)N1CCc2ccccc2C1` the figure was -0.634%; with `O=C(COc1ccc2c(c1)OCO2)Nc1ccc2c(c1)oc1ccccc12`, 8.12%; with `CCN1C(=O)C(CC(=O)Nc2ccc(OC)cc2)N(CCc2ccc(OC)cc2)C1=S` (stereo not shown), -1.17%.
As for `COC(=O)CC1C(=O)NCCN1C(=O)CSc1nc2ccccc2c(=O)n1CC(C)C` (stereo not shown), the “hERG current change (%, negative = inhibition) at 10uM” value is listed as -10.2%.
The result for `O=C(NC1CCN(Cc2ccc(Cl)cc2Cl)CC1)c1ccccc1` reads -53.9%.
The result for `O=C(O)/C=C\C(=O)Nc1cc(O)ccc1[N+](=O)[O-]` reads 8.77%; that for `Cc1ccc(C(=O)CCC(=O)OCC(=O)NNC(=O)c2ccc([N+](=O)[O-])cc2)cc1`, -43.3%.
Take `COc1cccc(OCC(=O)NNC(=S)Nc2ccc(Cl)cc2Cl)c1`: the “hERG current change (%, negative = inhibition) at 10uM” value is on record as 10.3%.
Take `Cc1ccc(C(=O)NNC(=O)c2ccc3ccccc3c2O)cc1`: the “hERG current change (%, negative = inhibition) at 10uM” value is listed as -24.4%.
The result for `CCCNC(=O)C(Cc1ccccc1)NS(=O)(=O)c1ccc2c(c1)c(=O)n(C)c(=O)n2C` (stereo not shown) reads -0.669%; that for `CC(=O)Nc1ccc(S(=O)(=O)Nc2cccc(NC(=O)C(C)(C)C)c2)cc1`, 19.5%.
With `N#Cc1ccsc1NC(=O)CN1C(=O)NC2(CCCC2)C1=O` the figure was -5.8%.
Regarding `Cc1cc(C)c2[nH]c(C(=O)N3CCC(n4nccc4NC(=O)C4CC4)CC3)c(C)c2c1`, the “hERG current change (%, negative = inhibition) at 10uM” value is recorded as -44.6%.
Consider `O=C(O)CC(CC(=O)Nc1ccc2ccccc2n1)c1ccccc1` (stereo not shown), for which the “hERG current change (%, negative = inhibition) at 10uM” value stood at 9.58%.
As for `COc1ccc(C)cc1NC(=O)C1CCCN(S(=O)(=O)c2ccc3[nH]c(=O)ccc3c2)C1` (stereo not shown), the “hERG current change (%, negative = inhibition) at 10uM” value was -25.2%.
The result for `Cc1cccc(-n2ncc3c(N(C)C4CCCCC4)ncnc32)c1` reads -9.07%.
`CC(C)CC(=O)Nc1c2c(nn1-c1cccc(Cl)c1)CS(=O)(=O)C2`: the “hERG current change (%, negative = inhibition) at 10uM” value is given as -40.8%.
Consider `Cc1ccc([N+](=O)[O-])cc1S(=O)(=O)Nc1ccc(OCC(=O)N2CCOCC2)cc1`, for which the “hERG current change (%, negative = inhibition) at 10uM” value was -33.4%.
For `CCN(CC)CCn1c2c(c(SCC(=O)Nc3ccc(C(C)C)cc3)nc1=O)CCC2`, the “hERG current change (%, negative = inhibition) at 10uM” value was -56.9%.
The result for `CC(C)[C@H](Nc1ccc(C(F)(F)F)cc1[N+](=O)[O-])C(=O)O.[Cl-]` reads 20%.
The result for `COc1cc(C(Nc2ccc(S(=O)(=O)N3CCC(C)CC3)cc2)C(=O)NCC2CCCO2)cc(OC)c1OC` (stereo not shown) reads -8.19%; that for `CCC1=[N+](C)CCn2c(C)ccc21.[I-]`, 24%.
With `Cc1cnc(C)c(N2CCC(C(=O)NC(C)c3cccs3)CC2)n1` (stereo not shown) the figure was -11.4%; with `Cc1cc(CNCc2c(C(=O)N(C)Cc3ccccc3)nc3ccccn23)nn1C`, 4.49%; with `CCOc1cc(C(=S)N2CCCC2)ccc1OCc1ccccc1`, 7.93%.
On to `COc1cc(-c2ccc3sc(-c4ccsc4)c(C#CCO)c3c2)cc(OC)c1OC`, for which the “hERG current change (%, negative = inhibition) at 10uM” value was 16.5%.
Take `COc1cc(C(=O)O)nc2ccc([N+](=O)[O-])cc12`: the “hERG current change (%, negative = inhibition) at 10uM” value was 1.67%.
With `Nc1ccc2nc(SCc3ccccc3F)sc2c1` the figure was 0.868%.
The result for `O=C(Nc1nn[nH]n1)C12CC3CC(CC(C3)C1)C2` reads 18.7%; that for `COc1ccccc1CC1/C(=N/O)C2CCN1CC2.Cl` (stereo not shown), 2.01%; that for `CCCCCC(=O)Nc1nnc(CCc2ccccc2)s1`, 3.33%.
`O=C(O)CSc1ncnc2sc3c(c12)CCC3`: the “hERG current change (%, negative = inhibition) at 10uM” value was 16.3%.
`COc1ccc(N2C(=O)CC(NCC#N)C2=O)cc1` (stereo not shown): the “hERG current change (%, negative = inhibition) at 10uM” value is recorded as -7.33%.
The result for `O=c1[nH]c(=O)n(Cc2ccco2)c(O)c1C=NCCCn1ccnc1` reads 16.3%; that for `CC(C)CC(NC(N)=O)C(=O)Nc1ccc(Oc2ccccc2)cc1` (stereo not shown), 10.1%.
